# Laboratory results taken from ChEMBL document CHEMBL1201862, “PubChem BioAssay data set” (2004).
# Tested on: NCI-H322M
# Assay: DTP human tumour cell line panel, 48 h
row,SMILES,GI50
1,CC(C)=CCC[C@@H](C)C1=C(O)C(=O)C(C)=C(c2c(I)c(=O)n(C)c(=O)n2C)C1=O,inactive: > 100 µM
2,O=C1c2ccccc2C(=O)c2c(NC(=O)c3ccc4c5c(ncnc35)-c3ccccc3C4=O)cccc21,inactive: > 100 µM
3,COc1ccc2oc(=N)c(C(=O)Nc3ccccc3)cc2c1,inactive: 42.6 µM
4,Clc1ccc(OCc2nnc3sc(-c4ccc(-c5ccc(Cl)cc5Cl)o4)nn23)c(Cl)c1,inactive: 20.9 µM
5,CC1(C)C(=O)/C(=C/c2ccccc2)C(C)(C)C1(C)C,inactive: 99.8 µM
6,O=S(=O)(/N=c1/[nH]c2ccccc2n1S(=O)(=O)c1ccccc1)c1ccccc1,inactive: 59.4 µM
7,Cc1cc(-c2nc3c(O)cccc3s2)ccc1N,inactive: 26.9 µM
8,CCCCCCSC[C@H](OC(C)=O)[C@@H](OC(C)=O)[C@@H](OC(C)=O)[C@@H](COC(C)=O)OC(C)=O,inactive: > 100 µM
9,COC(=O)C1(c2cc3ccccc3n2S(=O)(=O)c2ccccc2)CC2C=CC1NC2 (stereo unspecified),inactive: 2.98 µM
10,NC1CCCCC1NCCNC1CCCCC1N (stereo unspecified),inactive: 80.4 µM
11,C=CCNC1=NC(=O)C(CC(=O)Nc2ccc([N+](=O)[O-])cc2[N+](=O)[O-])S1 (stereo unspecified),inactive: > 100 µM
12,Cc1[nH]c2ccccc2c1C1Cc2ccccc2N1C(=O)/C=C\C(=O)O (stereo unspecified),inactive: 51.3 µM
13,Cc1nc(N)nc(S)c1CCC(=O)O,inactive: > 100 µM
14,Cc1csc2c(P(=O)(OC(C)C)OC(C)C)c(-c3ccccc3)cn12,inactive: 12.1 µM
15,COc1ccc(C(c2ccccc2)(c2ccc(OC)cc2)N2C(=O)NC3C(CCCCC(=O)NCCCCCCOP(OCCC#N)N(C(C)C)C(C)C)SCC32)cc1 (stereo unspecified),inactive: 15.8 µM
16,O=C1c2cc(Cl)ccc2N=C(NC2CCCC2)C2CSCN12 (stereo unspecified),inactive: > 100 µM
17,COc1ccc(O)c(/C=N\Nc2ccccc2)c1,inactive: 37 µM
18,CCOC(=O)/C(C(=O)c1ccccc1)=C1/NCCN1C,inactive: > 100 µM

row,SMILES,GI50
1,N#Cc1nc(/C=C/c2cccnc2)oc1N,inactive: > 100 µM
2,Cc1ccc(CC2(OCCN(C)C)CCC(C(C)(C)C)CC2)cc1 (stereo unspecified),inactive: 1.98 µM
3,CC1=CC(=O)/C(=C/NC(=S)c2ccncc2)C(=O)O1,inactive: > 100 µM
4,CC1(C)CCCCC1/C=C/C(CC(O)(C(F)(F)F)C(F)(F)F)=N\Nc1ccc([N+](=O)[O-])cc1[N+](=O)[O-] (stereo unspecified),active: 0.282 µM
5,N#Cc1c(C#N)c(-c2cccc([N+](=O)[O-])c2)n(-c2ccccc2)c1N,inactive: > 100 µM
6,C#CCC[C@@H]1O[C@@]1(C)CC/C=C(\C)CC/C=C/C=O,inactive: > 100 µM
7,COc1c(-c2ccc(F)cc2)oc2c(CC(=O)O)cccc2c1=O,inactive: > 100 µM
8,O=C(NI1OC(=O)c2ccccc21)c1ccc(Cl)cc1,inactive: > 100 µM
9,O=C1/C(=C\c2cccc(Oc3ccccc3)c2)SC(c2ccccc2)N1c1cccc(Cl)c1 (stereo unspecified),inactive: > 100 µM
10,COC(=O)[C@H](Cc1ccc(OC(C)(C)C)cc1)N[C@H](C)C(=O)N[C@@H](Cc1ccccc1)C(=O)OCc1ccccc1,inactive: > 100 µM
11,N#CCCN(c1ccc(C=O)cc1)S(=O)(=O)c1ccccc1,inactive: > 100 µM
12,CCCCC1Cc2ccccc2-c2nc3ccccc3n21 (stereo unspecified),inactive: 17.1 µM
13,COc1ccc(CCNC(=S)NC=C2C(=O)c3ccccc3C2=O)cc1OC,inactive: > 100 µM
14,CCCc1c(C(=O)OCC)[nH]c(-c2ccc(-c3[nH]c(C(=O)OCC)c(CCC)c3C(=O)OCC)o2)c1C(=O)OCC,inactive: > 100 µM
15,CC[C@@H]1NC(C(=O)OC)Cc2c1[nH]c1ccccc21 (stereo partly specified),inactive: 73.8 µM
16,C/C(=N\NC(=N)N)C(CN1CCOCC1)C(c1ccccc1)c1c(O)c2ccccc2oc1=O (stereo unspecified),inactive: > 100 µM
17,Cc1nn(C(=O)c2ccccc2O)c2c1C(c1ccc3ccccc3c1O)SC(=N)N2 (stereo unspecified),inactive: 7.78 µM
18,CCn1c(SCC(=O)NNC(=S)Nc2ccc([N+](=O)[O-])cc2)nc2ccccc2c1=O,inactive: 67.8 µM

#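 A five-concentration, 48-hour dose response in 96-well plates underlies each endpoint, interpolated linearly between surrounding concentrations. Here, GI50 denotes the concentration required for 50% inhibition of growth.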 Activity calls are given as the source filed them. Cut-off read from the data, not from the text of the source: active = GI50 up to about 1.1 µM and inactive = higher.
